Laboratory results reported in PubChem BioAssay (NCI).
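48-hour exposure; five concentrations; linearly interpolated endpoints. TGI: total growth inhibition.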 The source holds more than one record for some entries. They are shown here; other results are not. The source may hold further records. The records of an entry are repeated measurements across runs, samples, wells, individuals or studies. What stands in brackets tells the records apart. A, B and so on number the origins entry by entry.

Test system: OVCAR-5 ovarian
Assay: growth of human tumour cells (NCI), 48 h

In the case of `OCc1ccc(-c2nn(Cc3ccccc3)c3ccccc23)o1`, the TGI is reported as 437 nM [sample A, mean of 2 tests] and 26.9 µM [sample B, 1 test].
